This is one part of the list.
Legend:
Assay in all cases: glycan array binding signal (z-score within array); higher = stronger binding
Conditions in all cases: glycan notation: IUPAC condensed, linker removed
[1] = biological target: Fuc(a1-2)[GalNAc(a1-3)]Gal(b1-3)GlcNAc(b1-3)GalNAc
How it was run: (§1)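 Negative Z-scores can be read as non-binding. The Z-score is calculated within each array and then averaged across arrays of one protein sequence at different concentrations or buffers and across linkers. Arrays, 3228 in all, were curated from the Consortium for Functional Glycomics database and kept only where the protein sequence was available.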

[2] = biological target: Fuc(a1-2)[GalNAc(a1-3)]Gal(b1-4)Glc
How it was run: as §1

[3] = biological target: Fuc(a1-2)[GalNAc(a1-3)]Gal(b1-4)GlcNAc
How it was run: as §1

[4] = biological target: Fuc(a1-2)[GalNAc(a1-3)]Gal(b1-4)GlcNAc(b1-2)Man(a1-3)[Fuc(a1-2)[GalNAc(a1-3)]Gal(b1-4)GlcNAc(b1-2)Man(a1-6)]Man(b1-4)GlcNAc(b1-4)GlcNAc
How it was run: as §1

[5] = biological target: Fuc(a1-2)[GalNAc(a1-3)]Gal(b1-4)GlcNAc(b1-2)Man(a1-3)[Fuc(a1-2)[GalNAc(a1-3)]Gal(b1-4)GlcNAc(b1-2)Man(a1-6)]Man(b1-4)GlcNAc(b1-4)[Fuc(a1-6)]GlcNAc
How it was run: as §1

[6] = biological target: Fuc(a1-2)[GalNAc(a1-3)]Gal(b1-4)GlcNAc(b1-3)Gal(b1-4)GlcNAc
How it was run: as §1

[7] = biological target: Fuc(a1-2)[GalNAc(a1-3)]Gal(b1-4)GlcNAc(b1-3)Gal(b1-4)GlcNAc(b1-3)Gal(b1-4)GlcNAc
How it was run: as §1

[8] = biological target: Fuc(a1-2)[GalNAc(a1-3)]Gal(b1-4)GlcNAc(b1-3)GalNAc
How it was run: as §1

[9] = biological target: Fuc(a1-2)[GalNAc(a1-3)]Gal(b1-4)[Fuc(a1-3)]GlcNAc
How it was run: as §1

[10] = biological target: Fuc(a1-2)[GalNAc(a1-3)]Gal(b1-4)[Fuc(a1-3)]GlcNAc(b1-3)GalNAc
How it was run: as §1

[11] = biological target: Fuc(a1-2)[GalNAc(a1-4)]Gal(b1-4)GlcNAc
How it was run: as §1

[12] = biological target: Fuc(a1-2)[GalNAc(b1-3)]Gal
How it was run: as §1

[13] = biological target: Fuc(a1-3)GlcNAc
How it was run: as §1

[14] = biological target: Fuc(a1-3)[Gal(b1-4)]Glc6S
How it was run: as §1

[15] = biological target: Fuc(a1-3)[Gal(b1-4)]GlcNAc
How it was run: as §1

[16] = biological target: Fuc(a1-3)[Gal(b1-4)]GlcNAc(b1-2)Man(a1-3)[Fuc(a1-3)[Gal(b1-4)]GlcNAc(b1-2)Man(a1-6)]Man(b1-4)GlcNAc(b1-4)GlcNAc
How it was run: as §1

[17] = biological target: Fuc(a1-3)[Gal(b1-4)]GlcNAc(b1-2)Man(a1-3)[Fuc(a1-3)[Gal(b1-4)]GlcNAc(b1-2)Man(a1-6)]Man(b1-4)GlcNAc(b1-4)[Fuc(a1-6)]GlcNAc
How it was run: as §1

[18] = biological target: Fuc(a1-3)[Gal(b1-4)]GlcNAc(b1-3)Gal(b1-3)[Fuc(a1-4)]GlcNAc
How it was run: as §1

[19] = biological target: Fuc(a1-3)[Gal(b1-4)]GlcNAc(b1-3)GalNAc
How it was run: as §1

[20] = biological target: Fuc(a1-3)[Gal(b1-4)]GlcNAc(b1-4)Gal(b1-4)[Fuc(a1-3)]GlcNAc
How it was run: as §1

[21] = biological target: Fuc(a1-3)[Gal(b1-4)]GlcNAc(b1-4)Gal(b1-4)[Fuc(a1-3)]GlcNAc(b1-4)Gal(b1-4)[Fuc(a1-3)]GlcNAc
How it was run: as §1

[22] = biological target: Fuc(a1-3)[Gal(b1-4)]GlcNAc(b1-6)GalNAc
How it was run: as §1

[23] = biological target: Fuc(a1-3)[Gal(b1-4)]GlcNAc(b1-6)[Gal(b1-3)GlcNAc(b1-3)]Gal(b1-4)Glc
How it was run: as §1

[24] = biological target: Fuc(a1-3)[Gal(b1-4)]GlcNAc(b1-6)[Neu5Ac(a2-3)Gal(b1-3)]GalNAc
How it was run: as §1

[25] = biological target: Fuc(a1-3)[Gal(b1-4)]GlcNAc6S
How it was run: as §1

[26] = biological target: Fuc(a1-3)[Gal3S(b1-4)]GlcNAc
How it was run: as §1

[27] = biological target: Fuc(a1-3)[Gal3S(b1-4)]GlcNAc6S
How it was run: as §1

[28] = biological target: Fuc(a1-3)[GalNAc(b1-4)]GlcNAc
How it was run: as §1

[29] = biological target: Fuc(a1-4)GlcNAc
How it was run: as §1

[30] = biological target: Fuc(b1-3)GlcNAc
How it was run: as §1

[31] = biological target: Gal(a1-2)Gal
How it was run: as §1

[32] = biological target: Gal(a1-3)Gal
How it was run: as §1

[33] = biological target: Gal(a1-3)Gal(b1-3)GlcNAc
How it was run: as §1

[34] = biological target: Gal(a1-3)Gal(b1-3)GlcNAc(b1-2)Man(a1-3)[Gal(a1-3)Gal(b1-3)GlcNAc(b1-2)Man(a1-6)]Man(b1-4)GlcNAc(b1-4)GlcNAc
How it was run: as §1

[35] = biological target: Gal(a1-3)Gal(b1-3)GlcNAc(b1-3)GalNAc
How it was run: as §1

[36] = biological target: Gal(a1-3)Gal(b1-3)[Fuc(a1-4)]GlcNAc(b1-2)Man(a1-3)[Gal(a1-3)Gal(b1-3)[Fuc(a1-4)]GlcNAc(b1-2)Man(a1-6)]Man(b1-4)GlcNAc(b1-4)GlcNAc
How it was run: as §1

[37] = biological target: Gal(a1-3)Gal(b1-4)Glc
How it was run: as §1

[38] = biological target: Gal(a1-3)Gal(b1-4)GlcNAc
How it was run: as §1

[39] = biological target: Gal(a1-3)Gal(b1-4)GlcNAc(b1-3)GalNAc
How it was run: as §1

[40] = biological target: Gal(a1-3)Gal(b1-4)[Fuc(a1-3)]GlcNAc
How it was run: as §1

[41] = biological target: Gal(a1-3)Gal(b1-4)[Fuc(a1-3)]GlcNAc(b1-2)Man(a1-3)[Gal(a1-3)Gal(b1-4)[Fuc(a1-3)]GlcNAc(b1-2)Man(a1-6)]Man(b1-4)GlcNAc(b1-4)GlcNAc
How it was run: as §1

[42] = biological target: Gal(a1-3)GalNAc
How it was run: as §1

[43] = biological target: Gal(a1-3)[Gal(a1-4)]Gal(b1-4)GlcNAc
How it was run: as §1

[44] = biological target: Gal(a1-4)Gal(b1-3)GlcNAc(b1-2)Man(a1-3)[Gal(a1-4)Gal(b1-3)GlcNAc(b1-2)Man(a1-6)]Man(b1-4)GlcNAc(b1-4)GlcNAc
How it was run: as §1

[45] = biological target: Gal(a1-4)Gal(b1-4)Glc
How it was run: as §1

B1: FedF (Escherichia coli), Q47212 (protein)
chain: MRLKYILIIPLLLISLSVFASTLQVDKSVSYDWINSSASSAQVTGTLLGTGKTNTTQMPALYTWQHQIYNVNFIPSSSGTLTCQAGTILVWKNGRETQYALECRVSIHHSSGSINESQWGQQSQVGFGTACGNKKCRFTGFEISLRIPPNAQTYPLSSGDLKGSFSLTNKEVNWSASIYVPAIAKSYRLDTSITLPDTVNLKQNQATPVYYTFSAPSVSNTITGIPNQNDMPSSNVKLTIGPIQSKTTALYVQPDATGSWYDLSKSITMTVVKSSMLNFKGINAKPGNVTLSVPIVFEIQ
glycan array binding signal (z-score) [1]: 0.165 | glycan array binding signal (z-score) [2]: -0.189 | glycan array binding signal (z-score) [3]: -0.131 | glycan array binding signal (z-score) [4]: 0.386 | glycan array binding signal (z-score) [5]: -0.114 | glycan array binding signal (z-score) [6]: -0.209 | glycan array binding signal (z-score) [7]: 0.492 | glycan array binding signal (z-score) [8]: -0.148 | glycan array binding signal (z-score) [9]: -0.311 | glycan array binding signal (z-score) [10]: 0.093 | glycan array binding signal (z-score) [11]: 0.358 | glycan array binding signal (z-score) [12]: -0.104 | glycan array binding signal (z-score) [13]: -0.241 | glycan array binding signal (z-score) [14]: -0.094 | glycan array binding signal (z-score) [15]: -0.361 | glycan array binding signal (z-score) [16]: -0.084 | glycan array binding signal (z-score) [17]: -0.17 | glycan array binding signal (z-score) [18]: -0.053 | glycan array binding signal (z-score) [19]: 0.025 | glycan array binding signal (z-score) [20]: -0.225 | glycan array binding signal (z-score) [21]: 0.399 | glycan array binding signal (z-score) [22]: -0.079 | glycan array binding signal (z-score) [23]: -0.163 | glycan array binding signal (z-score) [24]: -0.14 | glycan array binding signal (z-score) [25]: -0.156 | glycan array binding signal (z-score) [26]: -0.305 | glycan array binding signal (z-score) [27]: -0.194 | glycan array binding signal (z-score) [28]: -0.44 | glycan array binding signal (z-score) [29]: -0.398 | glycan array binding signal (z-score) [30]: -0.307 | glycan array binding signal (z-score) [31]: -0.343 | glycan array binding signal (z-score) [32]: -0.304 | glycan array binding signal (z-score) [33]: -0.269 | glycan array binding signal (z-score) [34]: -0.111 | glycan array binding signal (z-score) [35]: 0.095 | glycan array binding signal (z-score) [36]: -0.162 | glycan array binding signal (z-score) [37]: 0.097 | glycan array binding signal (z-score) [38]: 0.095 | glycan array binding signal (z-score) [39]: -0.17 | glycan array binding signal (z-score) [40]: -0.432 | glycan array binding signal (z-score) [41]: -0.084 | glycan array binding signal (z-score) [42]: -0.219 | glycan array binding signal (z-score) [43]: -0.385 | glycan array binding signal (z-score) [44]: -0.191 | glycan array binding signal (z-score) [45]: 0.091

Reference: the supplement of paper PMC8728848
